The source gives no read counts; variants with many changes may rest on few reads.
B1: LINE1-full (parent)
chain: UACGUAGGUGGUUUUCCCCUGAUAGUGCUAAGGGGGCCUGGAAGUUUGGACUGGGCAGAGCUCAACACAGCGUGGCAAAGUGGCUGUGGCUAGACUGCCUCUCUGGAUUCCUCGUCACUCAGCAGGGCAUCUCUGAGAGAAAUGCC

Variants of: B1
Assay: self-cleavage, relative activity (ratio to wild type); higher = more cleavage; in vitro, sequencing; the parent is a self-cleaving ribozyme

| Variant | self-cleavage |
| --- | --- |
| UACGUAGGUGGUUUCCUCCUGAUAGUGCUAAGUGGGCCUGGAAGUUUGGGCUGGGCAGAGCUCAACACAGCGUGGCAAGGUGGCUGUGGCUAGACUGCCUCUCUGGAUUCCUCGCCACUCAGCAGGGCAUCUCUGAGAGAAAUGCC [U15C C17U G33U A50G A79G U115C] | 0 |
| UACGUAGGUGGUUUCCCUCUGAUAGUGCUAAGGGGGCCUGGAAGUUUGGACUGGGCAGGGCUCAACACAGCGUGGCAAAGUGGCUGUGGCUAGACUGCCUCUCUGGAUUCCUCGACACUCAGCAGGGCAUCUCUGAGAGAAAUGCC [U15C C18U A59G U115A] | 0.29 |
| UACGUAGGUGGUUUCCCCUUGAUAGUGCUAAGGGGGCCUGGAAGUUUGGACUGGGCUGAGCUCAGCACAGCGUGGCAAAGUGGCUGUGGCUAGACUGCCUCUCAGGAUUCCUCGUCACUCAGCAGGGCAUCUCUGAGAGAAAUGCC [U15C C19U A57U A65G U104A] | 0.02 |
| UACGUAGGUGGUUUCCCCUUGAUAGUGCUAAGGGGGCCUGGAAGUUUGGACUGGGCAGAGCUCAACACAGCGUGGCAAAGUGGCUGUGGCUAGACUGCCUCUCUGGAUUCCUCGCCACUCAGCAGGGCAUCUCUGAGAGAAAUGCC [U15C C19U U115C] | 1.57 |
| UACGUAGGUGGUUUCCCCCUGAUAGUGUUAGGGGGGCCUGGAAGUUUGGACUGGGCAGAGCUCAACACAGCGUGGCAAAGUGGCUGUGGCUAGACAGCCUCUCUGGAUUCCUCGUCACUCAGCAGGGCAUCUCUGAGAGAAAUGUC [U15C C28U A31G U96A C145U] | 0.15 |
| UACGUAGGUGGUUUCCCCCUGAUAGUGUUAAGGGGGCCUGGAAGUUUGGACUGGGCAAAGCUCAACGCAGCGUGGCAAAGUGGCUGUGGCUAGACUGCCUCUCUGGAUUCCUCGUCACUCAGCAGGGCAUCUCCGAGAGAAAUGCC [U15C C28U G58A A67G U134C] | 0 |
| UACGUAGGUGGUUUCCCCCUGAUAGUGCUAAGGGGGGCUGGAAGUUUGGACUGGGCAGAGCUCAACACAGCGUGGCAAAGUGGCUGUGACUAGACUGCCUCUCUGGAUUCCUCGUCACUCAGCAGGGCAUCUCUGAGAGAAAUGCC [U15C C37G G89A] | 0.09 |
| UACGUAGGUGGUUUCCCCCUGAUAGUGCUAAGGGGGUCUGGGAGUUUGGACUGGGCAGAGCUCAACACAGCGUGGCAAAGUGGCUGUGGCUAGACUGCCUCUCUGGAUUCCUCGUCACUCAGCAGGGCAUCUCUGAGAGAAAUGCC [U15C C37U A42G] | 1.63 |
| UACGUAGGUGGUUUCCCCCUGAUAGUGCUAAGGGGGCCUGGAAGUUUGGAUUGGGCAGAGCUCAACACAGCGUGGCAAAGUGGCUGUGGCUAGACUGCCUCUCUGGAUUCCUCGUCACUCGGCAGGGCAUCUCUGAGAGAAACGCC [U15C C51U A121G U143C] | 1.43 |
| UACGUAGGUGGUUUCCCCCUGAUAGUGCUAAGGGGGCCUGGAAGUUUGGACUGGGCAGAGCUCAACACAGAGUGGCAAAGUGGCUGUGGCUAGACUGCCUCUCUGGAUUCCUCGUCACUCAGCAUGGCAUCUCUGAGAGAAGUGCC [U15C C71A G125U A142G] | 0.09 |
| UACGUAGGUGGUUUCCCCCUGAUAGUGCUAAGGGGGCCUGGAAGUUUGGACUGGGCAGAGCUCAACACAGUGUGGCAAAGUGGCUGUGGCUAGUCUGCCUCUCUGGAUUCCUCGUCACUCAGCAGGGCAUCUCUGAGGGAAAUGCC [U15C C71U A94U A138G] | 0.1 |
| UACGUAGGUGGUUUCCCCCUGAUAGUGCUAAGGGGGCCUGGAAGUUUGGACUGGGCAGAGCUCAACACAGCGUGGUAAAGUGGCUGUGGCUAGACUGCCUCUCUGGAUUCCUCGUCACUCAGCAGGGCAUCUCUGGGAGAAAUGCC [U15C C76U A136G] | 2.92 |
| UACGUAGGUGGUUUCCCCCUGAUAGUGCUAAGGGGGCCUGGAAGUUUGGACUGGGCAGAGCUCAACACAGCGUGGUAAAGUGGCUGUGGCUAGACUGCCUCUCUGGAUUCCUCGUCACUCAGCAGGGCACCUCUGAGAGAAAUGCC [U15C C76U U130C] | 2.64 |
| UACGUAGGUGGUUUCCCCCUGAUAGUGCUAAGGGGGCCUGGAAGUUUGGACUGGGCAGAGCUCAACACAGCGUGGCAAAGUGGAUGUGGCUAGACUGCCUCUCUGGAUUCCCCGUCACUCAGCAGGGCAUCUCUGAGAGAAAUGCC [U15C C84A U112C] | 0.19 |
| UACGUAGGUGGUUUCCCCCUGAUAGUGCUAAGGGGGCCUGGAAGUUUGGACUGGGCAGAGCUCAACACAGCGUGGCAAAGUGGCUGUGGUUAGACUGCUUCUCUGGAUUCCUCGUCACUCAGCAGGGCAUCUCUGAGAGAAAUGCC [U15C C90U C99U] | 0.05 |
| UACGUAGGUGGUUUCCCCCUGAUAGUGCUAAGGGGGCCUGGAAGUUUGGACUGGGCAGAGCUCAACACAGCGUGGCAAAGUGGCUGUGGCUAGACUGCCUUUCUGGAUUCCUCGUCACUCAGCAGGGCAUCUCUGAGAGAGAUGCG [U15C C101U A141G C146G] | 1.1 |
| UACGUAGGUGGUUUCCCCCUGAUAAUGCUAAGGGGGCCUGGGAGUUUGGACUGGGCAGAGCUCAACACAGCGUGGCAAAGUGGCUGUGGCUAGACUGCCUCUCUGGAUUCCUCGCCACUCAGCAGGGCAUCUCUGAGAGAAAUGCC [U15C G25A A42G U115C] | 0.78 |
| UACGUAGGUGGUUUCCCCCUGAUAAUGCUAAGGGGGCCUGGAAGUUUGGACUGGGCAGAGCUCAACACAACGUGGCAAAGUGGCUGUGGCUAGACUGCCUCUCUGGAUUCCUCGUCACUCAGCAGGGCAUCUCUGAGAGAAAUGCC [U15C G25A G70A] | 0.18 |
| UACGUAGGUGGUUUCCCCCUGAUAGUGCUAAAGGGGCCUGGAGGUUUGGACUGGGCAGAGCUCAACGCAGCGUGGCAAUGUGGCUGUGGCUAGACUGCCUCUCUGGAUUCCUCGUCACUCAGCAGUGCAUCUCUGAGAGAAAUGCC [U15C G32A A43G A67G A79U G126U] | 1.22 |
| UACGUAGGUGGUUUCCCCCUGAUAGUGCUAAUGGGGCCUGGAAGUUUGGACUGGGCAGAGCUCAACACAGCGUGGCAAGGUGGCUGUGGCUAGACUGCCUCUCUGGAUUCCUCGUCACUCAGCAGGGCAUCUCUGAGAGAAAUGCC [U15C G32U A79G] | 1.18 |

| Variant | self-cleavage |
| --- | --- |
| UACGUAGGUGGUUUCCCCCUGAUAGUGCUAAGUGGGCCUGGAAGUUUGGACUGGGCAGAGCUCAACACAGCGUGGCAAAGUGGCUGUGGCUAGUCUGCCUCUCUGGAUUCCUCGUCACUCAGCAGGGCAUCUCUGAGAGAAAUGCC [U15C G33U A94U] | 0.21 |
| UACGUAGGUGGUUUCCCCCUGAUAGUGCUAAGGGAGCCUGGAAGUUUGGACUGGGCAGAGCUCAACACAGCGUGGCAAAGUGGCUGUGGCUGGACUGCCUCUCUGGAUUCCUCGUCACCCAGCAGGGCAUCUCUGAGAGAAAUGCC [U15C G35A A92G U119C] | 0.04 |
| UACGUAGGUGGUUUCCCCCUGAUAGUGCUAAGGGAGCCUGGAAGUUUGGACUGGGCAGAGCUCAACACAGCGUGGCAAAGCGGCUGUGGCUAGACUGCCUCUCUGGAUUCCUCGUCACUCAGCAGGGCAUCUCUGAGAGAAAUGCC [U15C G35A U81C] | 1.44 |
| UACGUAGGUGGUUUCCCCCUGAUAGUGCUAAGGGGACCUGGAAGUUUGGACUGGGCAGAGCUCAACACAGCGUGGCAAGGAGGCUGCGGCUAGACUGCCUCUCUGGAUUCCUCGUCACUCAGCAGGGCAUCUCUGAGAGAAAUGCC [U15C G36A A79G U81A U87C] | 0.23 |
| UACGUAGGUGGUUUCCCCCUGAUAGUGCUAAGGGGACCUGGAAGUUUGGACUGGGCAGAGCUCAACACAGCGUGGCAAAGUGGCUGUGGCUAGACUGCCUCUCUGGAUUCCUCGUCACUCAGCAGGGCAUCUCUGAGAGAAGUGCC [U15C G36A A142G] | 0.54 |
| UACGUAGGUGGUUUCCCCCUGAUAGUGCUAAGGGGACCUGGAAGUUUGGACUGGGCAGAGUUCAACACAGCGUGGCAAAGUGGCUGUGGCUAGACUGCCCCUCUGGAUUCCUCGUCACUCAGCAGGGCAUCUCUGAGAGAAAUGCC [U15C G36A C61U U100C] | 0.02 |
| UACGUAGGUGGUUUCCCCCUGAUAGUGCUAAGGGGCCCUGGAAGUUUGGACUGGGCAGAGCUCAACACAGCGUGGCAAAGUGGCCGUGGCUAGACUGCCUCUCUGGACUCCUCGUCACUCAGUAGGGCAUCUCUGAGAGAAAUGCC [U15C G36C U85C U108C C123U] | 0.32 |
| UACGUAGGUGGUUUCCCCCUGAUAGUGCUAAGGGGGCCUAGAAGUUUGGACUGGGCAGAGCUCGACACAGCGUGGCAAAGUGGCUGUGGCUAGACUGCCUCUCUGGAUUCCUCGUCACUCAGCAGGGCAUCUCUGAGAGAAGUGCC [U15C G40A A64G A142G] | 0.24 |
| UACGUAGGUGGUUUCCCCCUGAUAGUGCUAAGGGGGCCUAGAAGUUUGGACUGGGCAGAGCUCAACACAGCGUGGCAAAGUGGCUGUGGCUAGACUGCCUCUCUGGAUUCCUCCUCACUCAGCAGGGCCUCUCUGAGAGAAAUGCC [U15C G40A G114C A129C] | 2 |
| UACGUAGGUGGUUUCCCCCUGAUAGUGCUAAGGGGGCCUGGAAAUUCGGACUGGGCAGAGCUCAACACAGCGUGGCAAAGUGGCUGUGGCUAGACUGCCACUCUGGAUUCCUCGUCACUCAGCAGGGCAUCUCUGAGAGAAAUGCU [U15C G44A U47C U100A C146U] | 1.38 |
| UACGUAGGUGGUUUCCCCCUGAUAGUGCUAAGGGGGCCUGGAAAUUUGGACUGGGCAGAGCUCAACACAGCGUGGCAAAGUGGCUGUGGCUAGACUGCCCCUCUGGAUUCCUCGACACUCAGCAGGGCAUCUCUGAGAGAAGCGCC [U15C G44A U100C U115A A142G U143C] | 2.63 |
| UACGUAGGUGGUUUCCCCCUGAUAGUGCUAAGGGGGCCUGGAAGUUUGGACUUGGCAGAGCUCAACACAGCGUGGCAAAGUGGCUGUGGCUAGACUGCCUCUCUGGAUUCCUCGUCACUCAGCAGGGCGUCUCUGAGAGAAAUGCC [U15C G53U A129G] | 1.95 |
| UACGUAGGUGGUUUCCCCCUGAUAGUGCUAAGGGGGCCUGGAAGUUUGGACUGAGCAGAGCUCAACACAGCGUGGCAAAGUGGCUGUGGCUAGACUGCCACUCUGGAUUCCUCGUCACUCAGCAGGGCAUCUCUGGGAGAAAUGCC [U15C G54A U100A A136G] | 0.19 |
| UACGUAGGUGGUUUCCCCCUGAUAGUGCUAAGGGGGCCUGGAAGUUUGGACUGAGCAGAGCUCAACACAGCGUGGCAAAGUGGCUGUGGCUAGACUGCCUCUCUGGAGUCCUCGUCACUCAGCAGGGCUUCUCUGAGAGGGAUGCC [U15C G54A U108G A129U A140G A141G] | 0.13 |
| UACGUAGGUGGUUUCCCCCUGAUAGUGCUAAGGGGGCCUGGAAGUUUGGACUGAGCAGAGCUCAACACAGCGUGGCAAAGUGGCUGUGGCUAGACUGCCUCUCUGGAUUCCUCGUCACUCAGCAGGGCAUCCCUGAGAGAAAUGCC [U15C G54A U132C] | 0.19 |
| UACGUAGGUGGUUUCCCCCUGAUAGUGCUAAGGGGGCCUGGAAGUUUGGACUGGCCAGAGCCCAACACAGCGUGGCAAAGUGGCUGUGGCUAGACUGCCUCUCUGGAUUCCUCGUCACUCAGCAGGGCAUCUCUGAGAGAAAUGCC [U15C G55C U62C] | 0.06 |
| UACGUAGGUGGUUUCCCCCUGAUAGUGCUAAGGGGGCCUGGAAGUUUGGACUGGGCAGAGCUCAACACAGCGUGCCAAAGUGGCCGUGGCUAGACUGCCUCUCUGGAUUCCUCGGCACUCAGCAGGGCAUCUCUGAGAGAAAUGCC [U15C G75C U85C U115G] | 0 |
| UACGUAGGUGGUUUCCCCCUGAUAGUGCUAAGGGGGCCUGGAAGUUUGGACUGGGCAGAGCUCAACACAGCGUGGCAAAGUGGCUAUGGCUAGACUGCCUCUCUGGAUUCCUCGCCACUCAGCAGGGCAUCUCUGAGAGAAAUGCC [U15C G86A U115C] | 0 |
| UACGUAGGUGGUUUCCCCCUGAUAGUGCUAAGGGGGCCUGGAAGUUUGGACUGGGCAGAGCUCAACACAGCGUGGCAAAGUGGCUGUCGCUAGACUGCCUCUCUGGAUACCUCGUCACUCAGCAGGGCAUCUCUGAGAGAAAUGCC [U15C G88C U109A] | 0.2 |

Source: the RNAGym collection of RNA variant scans (doi:10.7554/elife.90254)
